# Measurements from PMC6919601, “Identification of Plasmodium dipeptidyl aminopeptidase allosteric inhibitors by high throughput screening” (PLoS ONE, 2019).
# About 230 (0.21%) of roughly 110,000 compounds showed an effect of 50% or more. The list shows a part of the results.
# Biological target: DPAP1 (Plasmodium falciparum, UniProt Q8IIJ9)
# Assay: primary screen, percent inhibition; read by cleavage of a fluorogenic dipeptide substrate; higher = more effect of the substance
# Set-up: species or system P. falciparum D10 trophozoite lysates; single well
# 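Also: 30 min substrate incubation versus DMSO and 10 µM JCP410 controls.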
# Sequence of DPAP1 (Q8IIJ9 whole entry, looked up): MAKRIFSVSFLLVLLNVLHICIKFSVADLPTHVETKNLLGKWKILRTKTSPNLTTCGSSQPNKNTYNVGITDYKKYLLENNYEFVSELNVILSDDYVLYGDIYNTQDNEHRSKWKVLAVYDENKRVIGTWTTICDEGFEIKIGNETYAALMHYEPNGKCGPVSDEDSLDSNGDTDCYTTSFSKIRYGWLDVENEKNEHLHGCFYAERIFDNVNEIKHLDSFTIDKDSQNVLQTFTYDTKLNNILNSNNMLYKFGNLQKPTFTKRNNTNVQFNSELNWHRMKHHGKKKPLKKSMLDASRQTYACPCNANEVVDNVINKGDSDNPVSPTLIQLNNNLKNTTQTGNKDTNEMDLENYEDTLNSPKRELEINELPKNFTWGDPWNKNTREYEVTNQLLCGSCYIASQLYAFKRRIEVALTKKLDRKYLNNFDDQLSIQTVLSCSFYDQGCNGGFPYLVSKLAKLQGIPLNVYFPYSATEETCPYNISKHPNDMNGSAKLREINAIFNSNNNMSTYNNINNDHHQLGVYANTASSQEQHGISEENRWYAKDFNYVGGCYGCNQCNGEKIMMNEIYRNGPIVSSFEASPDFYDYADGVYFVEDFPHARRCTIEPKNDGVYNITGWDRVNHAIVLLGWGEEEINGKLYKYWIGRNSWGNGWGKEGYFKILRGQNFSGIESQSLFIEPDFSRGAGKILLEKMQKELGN
row,Compound,% Inhibition @ 10 uM [%]
1,COc1cc2nc(NCCN3CCOCC3)n3nc(-c4ccccc4)nc3c2cc1OC,-2.64
2,CCn1c2c(c3cc(OCC(C)C)ccc31)CCCC2=O,-5.15
3,CC(C(=O)N1CCC(Cc2ccccc2)CC1)n1sc2ccccc2c1=O (stereo not shown),-2.29
4,CC(C)c1cccc(C(C)C)c1C(O)c1ccccn1 (stereo not shown),-3.77
5,O=C(Nc1ccc(CN2CCOCC2)cc1)c1cccc(Cl)c1,-2.85
6,Cc1ccc(CN2CC34C=CC(O3)C(C(=O)NCc3ccco3)C4C2=O)cc1 (stereo not shown),1.83
7,CCOC(=O)c1c(C)[nH]c(-c2ccc(OC)cc2)c1-c1ccc(OC)cc1,-2.5
8,CC(=O)N/C(=C\c1cccs1)C(=O)O,-1.6
9,COc1ccc(NC2=CC(=O)c3ccccc3C2=O)cc1,6.47
10,O=C(NCc1ccco1)c1cc2n(n1)C(C(F)(F)F)CC(c1ccc(F)cc1)N2 (stereo not shown),2.44
11,Cc1ccc(C(=O)NC(C)c2ccc3c(c2)OCO3)s1 (stereo not shown),-5.34
12,O=C(c1ccccc1)c1ccc[nH]1,1.42
13,O=C(NCCN1CCOCC1)c1ccc(Cl)c(Cl)c1,-0.687
14,CC1CC(C)CN(C(=O)Cn2ncc3c4ccccc4n(Cc4ccccc4)c3c2=O)C1 (stereo not shown),1.8
15,Cc1ccc(Cc2cnc(CN3CCOCC3)c(O)c2)cc1,-2.03
16,CO/C(O)=C1\C(C)=NC2=C(C(=O)CC(c3cccs3)C2)C1c1ccc(F)c(F)c1 (stereo not shown),2.26
17,COc1ccccc1OCC(=O)Nc1cccc(C(=O)Nc2nccs2)c1,-2.6
18,Cc1ccc2n1CCN(C(=O)c1ccc(S(=O)(=O)N(C)C)cc1)C2C (stereo not shown),2.99
19,O=C(c1ncc[nH]1)c1ccccc1C(=O)N1CCCC1,3.83
20,COc1ccc(Cl)cc1-n1nnc(-c2nsc(NC(=O)c3cccc(C)c3)n2)c1C,3.99
21,CCC(=O)N1CCN(CCNC=C2C(=O)N(C)C(=O)N(C)C2=O)CC1,-6.35
22,NC(=O)c1c(NC(=O)c2nc(SCc3ccc(F)cc3)ncc2Cl)sc2c1CCCC2,5.54
23,C[C@@H]1O[C@@H](OCc2ccccc2)[C@@H]2OC(c3ccccc3)O[C@@H]2[C@H]1O (stereo partly shown),3.32
24,Cc1ccc(CNC(=O)CSc2nncn3c2cc2oc(C)cc23)cc1,-5.93
25,O=S(=O)(c1ccc(-c2ccccc2)cc1)N1CCCCC1,-5.91
26,CC(C)Cc1cc(C(=O)NC(C)c2ccccc2)no1 (stereo not shown),-1.21
27,O=C(O)c1ccc(Oc2ncnc3sc4c(c23)CCCC4)cc1,2.26
28,COc1ccc(C(=O)Nc2ccc(OCc3ccccc3)cc2)c(OC)c1,6.1
